This is one part of the list. The main result of the screen is listed elsewhere. These columns were measured beside it and carry no call.
Key:
Test in all cases: Primary Screen for Target Class Profiling of Small Molecule Inhibitors of Methyltransferases
[1] = molecular target: Glycine N-methyltransferase (Homo sapiens) (UniProt Q14749); details: purified enzyme, MTase-Glo SAH luminescence; measured here: GNMT inhibition; at 40 µM; stronger effect = lower value
Outline: (§1)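 Each enzyme was reacted with SAM and its substrate, with compounds tested once at 40 uM; SAH formed was read by MTase-Glo luminescence.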

[2] = molecular target: Guanidinoacetate N-methyltransferase (Homo sapiens) (UniProt Q14353); details: purified enzyme, MTase-Glo SAH luminescence; measured here: GAMT inhibition; at 40 µM; stronger effect = lower value
Outline: as §1

[3] = molecular target: Histamine N-methyltransferase (Homo sapiens) (UniProt P50135); details: purified enzyme, MTase-Glo SAH luminescence; measured here: HNMT inhibition; at 40 µM; stronger effect = lower value
Outline: as §1

[4] = molecular target: Nicotinamide N-methyltransferase (Homo sapiens) (UniProt P40261); details: purified enzyme, MTase-Glo SAH luminescence; measured here: NNMT inhibition; at 40 µM; stronger effect = lower value
Outline: as §1

[5] = molecular target: Phenylethanolamine N-methyltransferase (Homo sapiens) (UniProt P11086); details: purified enzyme, MTase-Glo SAH luminescence; measured here: PNMT inhibition; at 40 µM; stronger effect = lower value
Outline: as §1
% is set by controls: 0 for no effect and ±100 for the full control effect.

Structure (SMILES) | activity change, negative = inhibition [1] | activity change, negative = inhibition [2] | activity change, negative = inhibition [3] | activity change, negative = inhibition [4] | activity change, negative = inhibition [5]
Cc1noc(C)c1[S+](=O)([O-])N1CCn2ncc(C(=O)NCc3ccc(Cl)nc3)c2C1 | -11.3% | -6.21% | -6.93% | -10.2% | -2.17%
Cn1cc(CN2C[C@@H]3C[C@H](C2)c2ccc(NC(=O)COc4ccccc4)c(=O)n2C3)c2ccccc21 | -4.63% | -1.28% | -10.6% | -10.6% | -9.56%
COc1cc(/C=C/C(=O)O[C@@H]2O[C@H](CO)[C@@H](O)[C@H](O)[C@H]2O)ccc1O | -1.99% | -8.83% | 2.37% | -17.3% | -0.54%
O=C(COc1cccc(-c2nnc3n2CCCC3)c1)NCc1ccccc1 | -1.94% | 2% | -17.6% | -4.8% | -1.8%
COCCCNC(=O)N1Cc2c(sc3c2CCCC3)-n2cccc2C1c1cccc(C)c1 (stereo not given) | -7.34% | -0.707% | -7.08% | -10.7% | -5.17%
CC(C)(C)NC(=O)[C@H]1CC[C@H]2[C@@H]3CC[C@H]4NC(=O)CC[C@]4(C)[C@H]3CC[C@]12C | -2.66% | 9.1% | -2.2% | -16.4% | -9.51%
CCOC(=O)c1cnc2ccc(Br)cc2c1Nc1cccc(C(C)=O)c1 | -16.6% | 0.35% | 2.95% | 0.316% | -2.03%
CC(O)CN1CC2(CCC1=O)CCN(Cc1cncn1C)CC2 (stereo not given) | -4.29% | -8.87% | -4% | -14% | 2.57%
C=CCc1cc(-c2c(-c3ccccc3)ncn2CCOCCO)cc(OC)c1O | -5.25% | -5.76% | -4.77% | -24.4% | -8.69%
C[C@H]1O[C@@H](O[C@H]2CC[C@@]3(C)C(CC[C@]4(C)C3CC=C3C5CC(C)(C)CC[C@]5(C(=O)O)CC[C@]34C(=O)O)C2(C)C)[C@H](O)[C@@H](O)[C@@H]1O (stereo not given in full) | -1.2% | -1.4% | 0.513% | -13.5% | 2.85%
Cc1ccccc1Cn1nc2n(CCc3ccccc3)c(=O)c3ccccc3n2c1=O | -0.397% | 1.52% | 14.2% | -2.65% | -3.73%
CC1(C(=O)NC2CCCCC2)Cn2c(cc3sccc32)C(=O)N1Cc1ccc(Cl)cc1 (stereo not given) | -13.2% | -0.467% | -6.24% | -7.77% | -5.42%
CC(C)OCCCNc1nc2c(S(=O)(=O)c3ccccc3)nnn2c2ccccc12 | -5.22% | 2.75% | -3.45% | 0.536% | -8.05%
NC[C@@H]1O[C@H](C23CC4CC(CC(C4)C2)C3)Cc2c1ccc(O)c2O | -10.9% | 12.4% | -7.44% | -12.1% | 4.31%
Cc1cc2nn(CC(=O)Nc3cccc(Cl)c3)c(=O)n2c(Nc2ccc(F)cc2)n1 | 2.79% | 2.56% | -3.39% | -2.14% | -1.19%
COCCNc1nc2c(S(=O)(=O)c3c(C)cc(C)cc3C)nnn2c2ccccc12 | -2.89% | 0.645% | 7.5% | 2.76% | -2.16%
Cc1ccccc1CNC(=O)c1ccc2c(c1)C(O)CCCCCN2C (stereo not given) | -5.5% | -2.45% | -6.64% | -13.9% | 9.95%
CC(C(=O)NCc1cccc(Cl)c1)n1ccc2cc(S(=O)(=O)N3CCCCC3)ccc21 (stereo not given) | -6.68% | -1.73% | -5.03% | -7.05% | -5.94%
CC(C)OCCCNC(=O)c1cc2n(n1)CC(C)(C(=O)NC1CCCC1)N(C)C2=O (stereo not given) | 3.71% | 3.11% | -7.67% | 4.28% | -5.09%

Structure (SMILES) | activity change, negative = inhibition [1] | activity change, negative = inhibition [2] | activity change, negative = inhibition [3] | activity change, negative = inhibition [4] | activity change, negative = inhibition [5]
O=C(Cn1ccc2cc(S(=O)(=O)N3CCCCC3)ccc21)N1CCN(c2ccccc2)CC1 | -1.46% | 5.46% | 1.58% | -10.3% | -2.16%
COc1cc(C(O)CO)ccc1O (stereo not given) | 10% | 11.5% | 11.9% | -9.38% | -2.69%
CCOc1ccc(CC(=O)N2CCC[C@H]2c2nc(-c3ccc(OC)cc3)no2)cc1 | -8.25% | -5.7% | -4.59% | -10.8% | 3.19%
C[C@H]1C[C@H]2[C@@H]3CCC4=CC(=O)C=C[C@]4(C)[C@@]3(F)[C@@H](O)C[C@]2(C)[C@@]1(O)C(=O)COP(=O)(O)O | 6.29% | 8% | 10.7% | -4.97% | 7.98%
O=C(NC1CCCC1)C1c2ccccc2C(=O)N(C2CCCC2)C12CCCCC2 (stereo not given) | -2.8% | 0.306% | -0.425% | -9.96% | -0.59%
CC(C/C=C/C(C)(C)O)C1CCC(C)(O)C(O)C1 (stereo not given) | 4.91% | 5.5% | 4.74% | -7.9% | 1.29%
CCOc1ccccc1CN1C(=O)c2cc(-c3ccco3)nn2CC1(C)C(=O)NC1CCCCC1 (stereo not given) | -0.701% | 1.55% | 8.72% | 5.11% | -0.432%
COc1ccc(Cn2c(=O)c3ccccc3n3c(-c4ccc(O)cc4)nnc23)cc1 | -4.46% | 0.891% | 5.29% | -0.699% | 0.962%
C=CCn1c(=O)c2ccc(C(=O)NC(C)C)cc2n2c(=O)n(CC(=O)Nc3ccc(C)c(F)c3)nc12 | 8.29% | 1.01% | 7.62% | 5.88% | 0.929%
CCOC(=O)C1CCN(C(=O)CNS(=O)(=O)c2ccc3nc(C)sc3c2)CC1 | 2.73% | -3.99% | 6.94% | 9.19% | 2.25%
COCCN1CCC(CN(Cc2ccncc2)C(=O)C2CC23CCCC3)CC1 (stereo not given) | -6.07% | -7.38% | -4.87% | -14.5% | 2.96%
CCCn1c(=O)c2cc(Cl)ccc2n2c(=O)n(Cc3cccc(Cl)c3)nc12 | 1.74% | 3.46% | 6.07% | -0.726% | -1.17%
Cc1ccc(NC(=O)Cn2nc3n(CCC(C)C)c(=O)c4ccc(C(=O)NC(C)C)cc4n3c2=O)cc1C | 10.4% | 1.14% | 9.28% | 6.86% | 4.21%
C=C(COC(=O)C(C)C)C1Oc2cc(C(C)=O)ccc2C1OC(=O)C(C)C (stereo not given) | 1.69% | 3.38% | 9.08% | -8.66% | -4.38%
CC(=O)NC1(C)CCN(Cc2ccc(-c3ccc([S+](C)(=O)[O-])cc3)cc2)C1 (stereo not given) | -5.12% | 1.91% | -23.1% | -2.08% | -6.09%
COCc1ccc2c(c1)c(OC(C)(C)C(=O)N1CCN(C)CC1)nn2CCC(C)C | -4.91% | -3.69% | -2.25% | -11.7% | 2.43%
c1ccc(CC2=NOC3(CCN(Cc4c[nH]c5ccccc45)CC3)C2)cc1 | -4.33% | 2.12% | -27.1% | -10.1% | -38.5%
COC(=O)c1cc2n(n1)CC(C)(C(=O)NC1CCCCC1)N(c1ccc(F)cc1)C2=O (stereo not given) | 3.93% | 0% | 9.99% | 4.38% | 2.34%
COc1ccc(CNC(=O)Cn2ccc3cc(S(=O)(=O)N4CCCCC4)ccc32)cc1 | 4.83% | 1.19% | 5.02% | 2.34% | 4.25%
